From PubChem BioAssay AID463173 (ICCB-Longwood Screening Facility, Harvard Medical School, 2010)
Among all 52,000 compounds or so, about 1,700 (3.3%) were called active. Cut-off read from the data, not from the text of the source: active = survival mostly below about 52% (no sharp cut-off); inactive = mostly above about 56%. Some of the results follow.

Each compound was assayed on Wild type (assay: S. aureus survival, RN4220 and DeltatarO strains – OD600, teichoic acid synthesis inhibitors, primary screen (AID 463173)). Conditions: S. aureus RN4220 wild type/DeltatarO growth, OD600, 18 h, active compounds read low, screened at 18.75 µg/mL (by protocol).

Structure (SMILES) | survival
COc1ccc(-c2cn3c(n2)sc2cc(C(=O)NCCC4=CCCCC4)ccc23)cc1 | inactive: 80%
O=c1c2cnn(-c3ccc(F)cc3)c2ncn1Cc1ccccc1Cl | inactive: 76%
Cc1cc(C)n(CCc2nc3c4ccccc4nc(SCc4ccc(F)cc4)n3n2)n1 | inactive: 85%
Cc1ccc(CNC(=O)c2c[nH]c3ccc(S(=O)(=O)N4CCOCC4)cc3c2=O)cc1 | inactive: 82%
COc1ccc(OC)c(NC(=O)C(C)n2c(=O)cc(C)c3c(C)nn(-c4ccccc4)c32)c1 (centres undefined) | inactive: 70%
Cc1ccc(Cc2cnc(NC(=O)c3ccc4c(c3)CC(c3ccccc3)OC4=O)s2)cc1 (centres undefined) | inactive: 114%
O=C(NC1CC(=O)N(c2ccc(F)cc2)C1)C1CCCC1 (centres undefined) | inactive: 71%
Cc1c(C(=O)Nc2ccc(F)cc2F)oc2c1-c1nn(Cc3c(F)cccc3Cl)cc1CC2 | inactive: 86%
CCc1ccc(N2CC(c3nnc(NC(=O)c4ccco4)s3)CC2=O)cc1 (centres undefined) | inactive: 78%
N#Cc1ccccc1NC(=O)CSc1nc(-c2ccccc2)cc(C(F)(F)F)c1C#N | inactive: 93%
Nn1c(-c2ccccc2)cn2c(cc3sccc32)c1=S | inactive: 110%
CC(=O)c1ccc(S(=O)(=O)Nc2ccc(-c3cn4c(C)csc4n3)cc2)cc1 | active: -6%
CCOC(=O)c1c(NC(=O)c2ccc(C)cc2)sc2c1CCCCC2 | active: -1%
COc1ccc(C)cc1NC(c1nnc(-c2ccccc2)o1)c1ccc(F)cc1Cl (centres undefined) | active: 3%
COc1cc(Cl)c(C)cc1NC(=O)c1cc(S(=O)(=O)N2CCCC2)ccc1F | inactive: 32%
COC(=O)c1ccc(S(N)(=O)=O)o1 | inactive: 109%
Cc1cc(NC(=O)c2ccccc2F)ccc1-c1nc2ccccc2s1 | inactive: 88%
Cc1ccc(-n2cnc3cc(C(=O)NCCC4=CCCCC4)ccc32)c(C)c1 | inactive: 88%
CC1(C)Cc2c(c(N3CCNCC3)[nH]c(=S)c2C#N)CO1 | inactive: 106%
O=C(c1ccc2c(c1)C(=O)N(CCCO)C2=O)c1ccc2c(c1)C(=O)N(CCCO)C2=O | inactive: 100%
CCOC(=O)c1c(NC(=O)/C(C#N)=C/c2ccc(OC)cc2)sc2c1CCC2 | inactive: 74%
CCOC(=O)Cc1ccc(NC(=O)N(Cc2ccc(OC)cc2)C2CCN(C(C)=O)CC2)cc1 | inactive: 72%
Nc1cc(N)nc(SCc2ccc(Cl)cc2)n1 | inactive: 109%

Structure (SMILES) | survival
COc1ccc(NC(=O)c2ccc3oc(=O)c(S(=O)(=O)c4ccc(F)cc4)cc3c2)cc1OC | inactive: 71%
Cc1cccc(C)c1OCC(=O)N(Cc1ccccc1F)C1CCS(=O)(=O)C1 (centres undefined) | inactive: 91%
CCc1ccc(NC(=O)c2sc(-n3nc(C)c(CCC(C)C)c3C)nc2C)cc1 | inactive: 127%
COc1ccc(C(=O)N2CC(=O)Nc3ccc(Br)cc3C2c2ccc(F)cc2)cc1OC (centres undefined) | inactive: 79%
CCn1cc2nc(SCC(=O)Nc3cc(OC)ccc3OC)n(Cc3ccc(Cl)cc3)c(=O)c2n1 | inactive: 61%
Cc1ccc(-n2c(SCC(=O)N3CCc4ccccc43)nc3c([nH]c4ccccc43)c2=O)cc1 | inactive: 120%
Cc1cc(N2CCN(C3=NCC(C)(C)S3)CC2)n2c(nc3ccccc32)c1C#N | inactive: 110%
CCOc1ccc2nc(NCCNC(=O)C(C)(C)C)c(C)cc2c1 | inactive: 113%
COc1cc(C2c3c(-c4cc(C)ccc4O)n[nH]c3C(=O)N2Cc2cccnc2)cc(OC)c1OC (centres undefined) | inactive: 95%
CCOc1ccccc1NC(=O)c1ccc2c(c1)CCN2S(C)(=O)=O | inactive: 89%
CCS(=O)(=O)N1CCc2cc(C(=O)Nc3cc([N+](=O)[O-])ccc3C)ccc21 | inactive: 79%
CCOC(=O)c1c(CN(C)C)oc2ccc(O)cc12 | inactive: 109%
O=C(Nc1ccc(OC(F)(F)F)cc1)c1cc2c(=O)n3ccccc3nc2s1 | inactive: 86%
O=C(O)/C=C/c1ccc(-c2ccccc2)o1 | inactive: 99%
COc1ccc(C(=O)Nc2ccc3nc(SCC(=O)N4CCCC4)sc3c2)cc1 | inactive: 95%
COc1ccccc1CCNC(=O)Cn1ccc2cc(S(=O)(=O)N3CCCCC3)ccc21 | inactive: 87%
CCCC(=O)Nc1nnc(SCc2cc(=O)n3ccccc3n2)s1 | inactive: 112%
O=C(CCn1c(=O)c2cccn2c2cccnc21)N1CCN(c2ccc(F)cc2)CC1 | inactive: 102%
Cn1c(=O)c(=O)n(C)c2cc(S(=O)(=O)N3CCCC3C(=O)Nc3cccc(F)c3)ccc21 (centres undefined) | inactive: 71%
O=C(NC1CCCCC1)c1ccc2c(c1)N(Cc1ccccc1F)C(=O)c1ccccc1S2 | inactive: 85%
CCCCn1c(CN2CCN(c3ccc(OC)cc3)CC2)nc2c1c(=O)[nH]c(=O)n2C | inactive: 80%
Cc1cccc(NC(=O)CSc2nnc(CNC(=O)c3cccc(C)c3)n2-c2ccccc2)c1 | inactive: 72%
Cc1ccn2c(Nc3ccccc3C)c(-c3ccncc3)nc2c1 | inactive: 80%

Structure (SMILES) | survival
CCN(CCN(C)C)C(=O)Cn1ncc2c([nH]c3ccc(C)cc32)c1=O | inactive: 92%
Cc1ccc(CNC(=O)C2CCN(Cc3nc(-c4ccccc4C)oc3C)CC2)cc1 | inactive: 88%
COc1ccc(-c2noc(CN(C(=O)c3ccccc3Cl)C(C)C)n2)cc1 | inactive: 97%
Cc1ccccc1Cn1c(-c2cccs2)nc2ccccc21 | active: 26%
Cc1ccc2nc(CSc3nnc(NC(=O)CC(C)C)s3)cc(=O)n2c1 | inactive: 60%
Cc1cc(-c2ccccc2)nc2cc(C(=O)N3CCCCCC3)nn12 | inactive: 121%
O=C(CSc1nc2ccccc2o1)N=Nc1c(O)[nH]c2ccccc12 | inactive: 99%
CCOc1ccc(CNC(=O)CCC(=O)N2Cc3ccccc3Oc3ncccc32)cc1 | active: 0%
Cc1ccc(Cn2c(CN3CCC(C(=O)NCc4cccnc4)CC3)cc3ccccc32)cc1 | inactive: 75%
O=C1CCCC(O)=C1C=Nc1ccc2c(c1)oc1ccccc12 | inactive: 113%
CC(=O)c1cccc(NC(=O)CCS(=O)(=O)c2ccc3c(c2)n(C)c(=O)c(=O)n3C)c1 | inactive: 89%
COc1ccc(OC)c(NC(=O)CSc2c3c(nc4cc(Cl)ccc24)CCCC3)c1 | inactive: 80%
NC(=O)CSc1nc2cc3c(cc2c(=O)n1CCCCCC(=O)NCc1ccc2c(c1)OCO2)OCO3 | inactive: 55%
COc1ccc(OC)c(NC(=O)C2CCCN(S(=O)(=O)c3ccc4[nH]c(=O)ccc4c3)C2)c1 (centres undefined) | inactive: 91%
O=C(Nc1ccccc1C(F)(F)F)C1(S(=O)(=O)c2ccc(Cl)cc2)CC1 | inactive: 94%
CN1CC(=O)N(CC(=O)Nc2cccc(C#N)c2)c2ccccc2C1=O | inactive: 71%
Cc1c(Cl)cccc1NC(=O)Nc1nnc(N(C)C2CCCCC2)s1 | inactive: 111%
Cc1ccc(CCNC(=O)c2cnc3c(C)cccn3c2=O)cc1 | inactive: 88%
COc1ccc(-c2cn3c(n2)sc2cc(C(=O)NCC(C)c4ccccc4)ccc23)cc1 (centres undefined) | inactive: 78%
CCOC(=O)N1CCN(Cc2nc3cc(NC(=O)c4ccc(F)cc4)ccc3n2C(C)C)CC1 | inactive: 86%
CCN(CC)Cc1ccc(C(=O)O)o1 | inactive: 100%
CCOCCCNC(=O)C(NC(=O)C1CCC(C)CC1)C(C)C (centres undefined) | inactive: 67%
CN(C1CCCCC1)S(=O)(=O)c1ccc2c(c1)c(=O)c(C(=O)N1CCN(c3ccc(F)cc3)CC1)cn2C | inactive: 87%

Structure (SMILES) | survival
CCCCCCNC(=O)CCc1c(C)nc2nc(-c3cc(OC)cc(OC)c3)nn2c1C | inactive: 87%
Cc1ccc(C(=O)c2cn(Cc3cc(C)ccc3C)c3nc(C)ccc3c2=O)cc1 | inactive: 62%
Cc1cc(C)nc(SC2=CS(=O)(=O)c3ccccc32)n1 | inactive: 99%
Cc1ccc(-c2nnn(CC(=O)N(c3ccccc3)C(C(=O)NCc3ccccc3)c3ccncc3)n2)o1 (centres undefined) | inactive: 109%
CCc1ccccc1NC(=O)c1nn(-c2ccc(C)cc2)c(=O)c2c1c1ccccc1n2C | inactive: 130%
O=C(N/N=C1\SCC(=O)N1CCc1ccccc1)c1cccs1 | inactive: 100%
CC(C)c1cc(C(=O)NCc2ccc(F)cc2)no1 | inactive: 63%
CCS(=O)(=O)n1nc(-c2ccco2)nc1NCc1ccc(C(C)C)cc1 | inactive: 86%
O=C(Nc1nccs1)c1ccc(S(=O)(=O)NCC2CCCCC2)cc1 | inactive: 106%
CC(=O)Nc1ccc(NC(=O)C(NC(=O)C2CCC(C)CC2)C(C)C)cc1 (centres undefined) | inactive: 122%
Cc1ccc(-n2cnc3cc(C(=O)NC4CCCCCC4)ccc32)c(C)c1 | inactive: 83%
COc1ccc(C)cc1NC(=O)C1CCC(CNS(=O)(=O)c2ccc3c(c2)CCCC(=O)N3)CC1 (centres undefined) | inactive: 60%
O=C(Nc1ccc(F)cc1)c1ccc(CN2CC(=O)N3CCCCC3C2=O)cc1 (centres undefined) | active: -6%
COc1ccc(NC(=O)CC2SC(=Nc3ccccc3)N(CCO)C2=O)cc1 (centres undefined) | inactive: 106%
CC(C)c1ccc(-c2noc(C3CCCN(S(C)(=O)=O)C3)n2)cc1 (centres undefined) | inactive: 102%
Cc1ccc(NC(=O)CS(=O)CC(=O)NC2CCN(Cc3ccccc3)CC2)c(C)c1 (centres undefined) | inactive: 96%
CCc1ccc(Cn2nnc3c(=O)[nH]c(C4CCCN(C(=O)c5cccc(Cl)c5)C4)nc32)cc1 (centres undefined) | inactive: 76%
CC(C)c1ccc(OCC(=O)Nc2cc(-c3ccccc3)no2)cc1 | inactive: 127%
Cc1ccc(C(C)N2CCN(S(=O)(=O)c3ccc4c(c3)OCCO4)CC2)cc1C (centres undefined) | inactive: 100%
CC(=O)c1c(C)n(S(=O)(=O)c2ccc(Cl)cc2)c2ccc(NS(=O)(=O)c3ccc(Cl)cc3)cc12 | inactive: 79%
